# Results from PubChem BioAssay AID504332 (National Center for Advancing Translational Sciences (NCATS), 2011).
# Among all 350,000 compounds or so, about 31,000 (8.9%) were called active. Inconclusive means that the source gave no clear call. Such entries were picked first, then a sample of the others. Calls follow the shape of the dose curve; as a rule, active = well fitted inhibition curve with a large enough effect; inconclusive = small, poorly fitted or top-dose-only effect; inactive = no such curve, though single readings can be large or run the other way. Potencies beside an inconclusive call are fits to weak or partial responses and may not hold up.
# Biological target: Histone-lysine N-methyltransferase EHMT2 (Homo sapiens) (UniProt Q96KQ7)
# UniProt Q96KQ7, sequence (Q96KQ7 whole entry, looked up): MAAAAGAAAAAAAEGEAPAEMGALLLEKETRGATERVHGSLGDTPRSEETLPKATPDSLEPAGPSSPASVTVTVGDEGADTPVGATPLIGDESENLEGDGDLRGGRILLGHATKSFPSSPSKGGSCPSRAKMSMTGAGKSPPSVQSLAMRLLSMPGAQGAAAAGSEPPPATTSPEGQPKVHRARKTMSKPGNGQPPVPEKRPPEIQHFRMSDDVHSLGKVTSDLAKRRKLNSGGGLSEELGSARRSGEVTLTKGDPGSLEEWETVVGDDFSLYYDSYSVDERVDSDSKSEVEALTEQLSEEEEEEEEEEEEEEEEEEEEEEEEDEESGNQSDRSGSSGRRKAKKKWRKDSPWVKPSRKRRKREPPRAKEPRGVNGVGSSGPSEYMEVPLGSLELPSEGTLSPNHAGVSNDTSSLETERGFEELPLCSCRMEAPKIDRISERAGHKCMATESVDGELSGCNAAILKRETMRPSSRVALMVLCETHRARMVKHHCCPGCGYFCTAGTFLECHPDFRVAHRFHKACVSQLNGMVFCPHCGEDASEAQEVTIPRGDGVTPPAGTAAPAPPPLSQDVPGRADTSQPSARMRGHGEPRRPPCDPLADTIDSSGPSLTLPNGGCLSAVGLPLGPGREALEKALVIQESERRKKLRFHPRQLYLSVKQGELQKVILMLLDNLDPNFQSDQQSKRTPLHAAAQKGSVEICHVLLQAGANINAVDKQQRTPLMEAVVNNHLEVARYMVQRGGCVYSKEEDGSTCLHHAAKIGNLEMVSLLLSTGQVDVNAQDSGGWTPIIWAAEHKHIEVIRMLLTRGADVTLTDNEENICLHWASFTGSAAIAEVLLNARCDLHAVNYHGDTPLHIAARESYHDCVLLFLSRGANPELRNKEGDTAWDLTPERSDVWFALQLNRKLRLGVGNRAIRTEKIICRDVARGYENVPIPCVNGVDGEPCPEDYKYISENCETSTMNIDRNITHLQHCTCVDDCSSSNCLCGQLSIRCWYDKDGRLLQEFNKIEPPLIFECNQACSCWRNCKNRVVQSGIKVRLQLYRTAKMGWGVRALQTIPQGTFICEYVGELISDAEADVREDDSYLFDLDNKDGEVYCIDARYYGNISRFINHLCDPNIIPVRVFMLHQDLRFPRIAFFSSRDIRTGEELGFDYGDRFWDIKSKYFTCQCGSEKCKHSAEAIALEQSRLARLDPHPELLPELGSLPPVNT
# Test: qHTS Assay for Inhibitors of Histone Lysine Methyltransferase G9a; also: nearly all actives have a fitted effect of over 75% in size
# Details: G9a H3K9 monomethylation, AlphaScreen, 2 h; activity, negative = inhibition: at 59 µM (top of the series) unless noted
# Procedure, shortened: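 AlphaScreen detection with an anti-monomethyl H3K9 antibody quantified product after a 2 h room-temperature reaction containing 500 nM biotinylated H3K9 peptide, 20 µM SAM and 20 nM enzyme, which had been preincubated 15 min with compound.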
# % is scaled to controls: 0 for no effect and ±100 for the full control effect; potency is read from the fitted curve at half-maximal effect; tags tell the direction and shape of the fitted curve.
SMILES,"activity, negative = inhibition",Potency
CC(C)Cc1nc(SCC(=O)N2CCOCC2)c2c(=O)n(C)c(=O)n(C)c2n1,inactive: 18.5% [at 102 µM],–
O=C(CCc1ccccc1F)N1CCN(c2ccccc2)CC1,–,"inconclusive: 31.6 µM [inhibitor, single point]"
COc1ccc(CCNC(=O)c2ccc(OCC(=O)N3CCOCC3)c(OC)c2)cc1,–,active: 8.91 µM
C=CCCC(=O)Nc1nc(C)c(-c2csc(Nc3ccccc3OC)n2)s1,–,active: 25.1 µM
O=C(NC1CCCCC1)C(c1ccncc1)N(C(=O)c1csnn1)c1ccccc1F (stereo not drawn),inactive: -2.39% [at 102 µM],–
Cc1nn(-c2ccccc2)c(OC(=O)C(C)C)c1Sc1ccccc1,–,active: 1.58 µM
CC(=O)c1sc2nsc(SCCN3CCOCC3)c2c1N,–,active: 0.794 µM
O=[N+]([O-])c1ccc(N2CCN(c3ccccn3)CC2)c(Cl)c1,inactive: -73.5% [at 102 µM],–
CCS(=O)(=O)CCSc1nc2ccccc2s1,–,"inconclusive: 79.4 µM [inhibitor, single point]"
O=C(Nc1cccc(S(=O)(=O)N2CCCCC2)c1)c1cc2ccccc2o1,–,"inconclusive: 7.94 µM [inhibitor, partial curve, poor fit]"
O=C(COc1ccc2oc3c(c2c1)CCCC3)Nc1ccc(Br)cc1,–,"inconclusive: 1 µM [inhibitor, full curve, poor fit]"
CC1CCN(c2ccc(-c3cccc(NC(=O)c4ccco4)c3)nn2)CC1,–,"inconclusive: 79.4 µM [inhibitor, partial curve, poor fit]"
c1ccc(C2=NNC(=NCc3ccc4c(c3)OCO4)SC2)cc1,–,active: 39.8 µM
CCOC(=O)c1c(C)oc2ncnc(N3CCN(c4ccccc4OC)CC3)c12,–,"inconclusive: 5.62 µM [inhibitor, partial curve, poor fit]"
CN(C)C(=O)N1CCN(c2nc(-c3ccccc3)cs2)CC1,inactive: -12.1% [at 102 µM],–
COc1ccc(/C=C/C(=O)NCC2COc3ccccc3O2)cc1OC (stereo not drawn),inactive: 5.03% [at 102 µM],–
COc1ccc(Cn2c(SCc3ccc(C(=O)NC4CCCC4)cc3)nc3ccncc32)cc1,–,"inconclusive: 25.1 µM [inhibitor, partial curve, poor fit]"
COc1ccc(CCn2c(=S)[nH]c3ccc(N4CCOCC4)cc3c2=O)cc1OC,–,active: 17.8 µM
Fc1ccccc1N=C1NN=C(c2ccccc2)CS1,–,"inconclusive: 39.8 µM [inhibitor, partial curve, poor fit]"
O=C(Cn1nnc(-c2ccc(Cl)cc2)n1)NCc1ccco1,–,"inconclusive: 50.1 µM [inhibitor, partial curve, poor fit]"
CN1CCN(Cc2ccc(Sc3ccc(Cl)cc3)c([N+](=O)[O-])c2)CC1,inactive: -44.4% [at 102 µM],–
O=C(CSc1nnc(Cc2cc(=O)[nH]c(=O)[nH]2)n1-c1ccc(F)cc1)N1CCCCC1,–,"inconclusive: 44.7 µM [inhibitor, partial curve, poor fit]"
COc1cc(/C=C/C(=O)O)cc(S(=O)(=O)N2CCc3ccccc32)c1OC,inactive: 1.53% [at 102 µM],–
Cc1ccc(C(=O)N2CCCC(C(=O)c3ccc(Cl)cc3C)C2)cn1 (stereo not drawn),inactive: -3.47% [at 102 µM],–
O=C(Nc1nc(-c2ccncc2)cs1)c1ccc(S(=O)(=O)N2CCOCC2)cc1,–,"inconclusive: 44.7 µM [inhibitor, partial curve, poor fit]"

SMILES,"activity, negative = inhibition",Potency
CC(=O)c1cccc(NC(=O)Cc2cccs2)c1,–,"inconclusive: 89.1 µM [inhibitor, single point]"
O=[N+]([O-])c1ccc(S(=O)(=O)Nc2cccc(-c3ccc(N4CCCC4)nn3)c2)cc1,–,active: 10 µM
COc1cc(/C=N/N=C2/NC(=O)C(c3ccccc3)S2)ccc1O (stereo not drawn),–,"inconclusive: 70.8 µM [inhibitor, partial curve]"
CC(=O)Cc1nsc(Nc2ccc3c(c2)OCCO3)n1,–,"inconclusive: 0.708 µM [inhibitor, partial curve, poor fit]"
CN(C1CCCCC1)S(=O)(=O)Cc1ccccc1,–,active: 31.6 µM
COc1ccc(/C(O)=C2\C(=O)C(=O)N(CCN(C)C)C2c2cccc(OC)c2OC)cc1 (stereo not drawn),–,active: 11.2 µM
CCOc1ccc(/C=C2/SC(=S)N(CCC(=O)Nc3ccc(C(=O)O)cc3)C2=O)cc1,–,active: 15.8 µM
COc1ccc2[nH]c(C)c(CCNS(=O)(=O)c3cc(F)ccc3OC)c2c1,inactive: -29.6%,–
Cc1[nH]c(C)c(C(=O)/C=C/c2ccc([N+](=O)[O-])cc2)c1C,–,"inconclusive: 79.4 µM [inhibitor, single point]"
CN(C(=O)CSc1nnc(-c2ccccc2F)o1)c1ccccc1,–,"inconclusive: 50.1 µM [inhibitor, partial curve, poor fit]"
CCC(c1nnnn1C(C)(C)C)N(Cc1ccco1)Cc1cc2cccc(C)c2[nH]c1=O (stereo not drawn),–,"inconclusive: 39.8 µM [inhibitor, single point]"
Cc1ccc(C2=N/C(=C\N3CCCCC3)C(=O)O2)cc1,inactive: -32.3%,–
Cc1cc(C)c(NC(=O)C2CCCN2CCC(C)C)c(C)c1 (stereo not drawn),–,"inconclusive: 25.1 µM [inhibitor, partial curve, poor fit]"
COc1ccc(NC(=O)CCC(=O)c2cccs2)cc1S(=O)(=O)Nc1ccccc1Cl,inactive: -49.7%,–
CC1CCCN(c2ccc(/C=C(\C#N)c3nn(-c4ccccc4)c(N)c3C#N)cc2[N+](=O)[O-])C1 (stereo not drawn),–,active: 22.4 µM
Cn1c(=O)c(-c2cccs2)nc2cnc(OCc3ccccc3)nc21,inactive: -4.09% [at 0.501 µM],–
COc1ccc(N2CCN(C(=O)c3ccc(-n4nc(C)cc4C)cc3)CC2)cc1,inconclusive: -57.7% [inhibitor],–
O=C(NCCN1CCOCC1)C12CC3CC(C1)CC(c1ccccc1)(C3)C2,–,"inconclusive: 50.1 µM [inhibitor, partial curve]"
CN(C)c1ccc(C(=O)/C=C/c2ccccc2)cc1,inactive: 2.23% [at 102 µM],–
CCOC(=O)C1CCN(C(=O)Cn2nc(C)n3c(cc4cc(F)ccc43)c2=O)CC1,–,inactive
Cn1cnnc1SCC(=O)NC(=O)NCc1ccccc1,inactive: 4.31%,–
COc1ccc(N2CCN(S(=O)(=O)CCNC(=O)Cc3ccc(Cl)cc3)CC2)cc1,inactive: -4.46%,–
Cc1ccc(C(C(=O)NC(C)(C)C)N(CC2CCCO2)C(=O)CCC(=O)Nc2ccccn2)cc1 (stereo not drawn),inactive: 2.34% [at 102 µM],–
CC(=O)NNc1nc(-c2ccccc2)c2cc(Br)ccc2n1,–,"inconclusive: 35.5 µM [inhibitor, full curve]"
CCC(C)[C@H]1CNCCN1CC1(c2ccccc2)CC1 (stereo partly drawn),inactive: 13.4% [at 2.33 µM],–

SMILES,"activity, negative = inhibition",Potency
COCCn1c(C)cc(C(=O)CSc2nnnn2C2CCCC2)c1C,–,"inconclusive: 39.8 µM [inhibitor, single point]"
Cc1[nH]n(C(N)=S)c(=O)c1N=Nc1ccccc1C(F)(F)F,–,"inconclusive: 39.8 µM [inhibitor, single point]"
Cc1ccc(C)c(S(=O)(=O)N2CCN(C(=O)Cc3ccccc3)CC2)c1,inactive: 4.2% [at 0.501 µM],–
COc1ccc(COCC(O)CN2CC(C)OC(C)C2)cc1OC (stereo not drawn),–,"inconclusive: 89.1 µM [inhibitor, partial curve, poor fit]"
CCc1nc(NCC2CCCN2CC)c2nnn(Cc3ccccc3F)c2n1 (stereo not drawn),inconclusive: -60.2% [inhibitor],–
c1ccc2c(c1)CCN(CCCNc1nc3ccccc3n3cnnc13)C2,–,"inconclusive: 89.1 µM [inhibitor, single point]"
Cc1nc(NCc2ccco2)[nH]c(=O)c1CCC(C)C,inactive: 14.1% [at 12.7 µM],–
CCC(CO)Nc1ncnc2c1cnn2-c1ccc(Cl)cc1 (stereo not drawn),–,"inconclusive: 89.1 µM [inhibitor, single point]"
CCOc1ccccc1C(=O)N(Cc1ccc(C)o1)C1CCS(=O)(=O)C1 (stereo not drawn),–,"inconclusive: 89.1 µM [inhibitor, single point]"
COc1ccc(OC)c(NC(=O)CSC2=Nc3ccccc3C3=NC(CC(=O)NCc4ccc5c(c4)OCO5)C(=O)N23)c1 (stereo not drawn),inactive: 9.67%,–
CN(C)C(=O)c1c2c(nc3ccccc13)CCCC2,–,"inconclusive: 0.251 µM [inhibitor, partial curve, poor fit]"
O=C(NCc1ccco1)c1ccc(Cl)c(S(=O)(=O)Nc2ccccc2)c1,–,"inconclusive: 79.4 µM [inhibitor, partial curve, poor fit]"
Cc1cc(-c2n[nH]c(=S)n2/N=C/c2sccc2C)n[nH]1,–,active: 1.26 µM
CCOc1cc(N2CCOCC2)c(OCC)cc1NC(=S)NCCCOC,–,"inconclusive: 28.2 µM [inhibitor, partial curve, poor fit]"
CCCC/C(O)=C1\C(=O)CCCC1=NCCc1c(C)[nH]c2ccccc12,–,"inconclusive: 50.1 µM [inhibitor, partial curve]"
Cc1ccccc1Cn1c(=O)n(Cc2ccc(Cl)cc2)c(=O)c2cccnc21,inactive: 21.5%,–
O=c1[nH]c(NC2CCCCC2)nnc1Cc1ccccc1,–,"inconclusive: 79.4 µM [inhibitor, single point]"
CCCCOC(=O)CSc1nnc(-c2cc(OC)c(OC)c(OC)c2)o1,inactive: 22.8% [at 102 µM],–
COc1ccc(NC(=O)CSc2n[nH]c(=O)n2C2CC2)cc1Cl,–,"inconclusive: 89.1 µM [inhibitor, single point]"
COc1ccccc1N1CCN(S(=O)(=O)c2ccc3c4c(cccc24)C(=O)N3C)CC1,–,"inconclusive: 3.16 µM [inhibitor, single point]"
CCOC(=O)c1cc2occc2n1CC(=O)Nc1ccc(OC)cc1OC,–,active: 39.8 µM
CC(Sc1ncc(C#N)c(N)n1)C(=O)Nc1ccccc1 (stereo not drawn),–,"inconclusive: 79.4 µM [inhibitor, partial curve, poor fit]"
O=C(c1ccc2c(c1)N(Cc1ccc(F)cc1)CCS2)N1CCOCC1,–,"inconclusive: 70.8 µM [inhibitor, single point]"
